Measured values from the supplement of paper PMC10126150.
Values marked as one replicate rest on one cluster of the flow cell; about a third of the high ones do not repeat.

System: ATP
Experiment: switch fluorescence ratio, 500 uM ATP over buffer (Cy3 cluster intensity, sum of 5 cycles each) (fold (ratio)); higher = stronger signal-on switching upon ATP binding; sequences stand for … in TCGTCGGCAGCGTCAGATGTGTATAAGAGACAGTTTTTTTTTTTTTTTTTTTTTTTTT…TC
Conditions: aptamer strand: ATP DNA aptamer (quencher-CACCTGGGGGAGTATTGCGGAGGAAGG + anchor), 100 nM annealed; ATP concentration: 500 uM; one replicate
Summary of the method: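 Cy3-labelled switching-strand clusters on a modified Illumina MiSeq flow-cell were annealed to 100 nM quencher-labelled ATP aptamer and imaged first in selection buffer, then after 15 min with 500 uM ATP at 22 °C. NaOH stripping and re-annealing separated each of five buffer/ATP cycles, and clusters outside 100-1000 RFU were excluded. The fluorescence ratio sums target-cycle Cy3 intensity over buffer-cycle Cy3 intensity per cluster and averages it per switch-domain sequence.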
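Further: ATP exposure 15 min at 22 °C before imaging.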

Sequence	switch fluorescence ratio
ATTCGGAACA	0.991
TGATCTTTTT	0.982
CACATGGGGT	1.04
TCATTCTCAT	1
GCACGAGGTA	1.01
ATCGGTTGCA	0.995
GCAGGCCTCC	1.24
TGAATGCGGA	0.991
CAGCCAGCGG	1.04
AAGGTAGTAC	1.07
GAAACCGTGA	1.41
GTCTTTACGG	1.02
ATGGACCGAT	1.04
ATTGTCCTTC	1.05
TACCCCTATT	1.07
TACAGCTACG	1.09
ATTATAGCCG	1.06
TATCTCACCT	1.19
TCGTAGTTGG	0.984
ATGTAGTTTG	0.993
CGAGGATCGT	0.98
AGGTGAAATG	1.01
TATGGTTAGC	1.02

Sequence	switch fluorescence ratio
ATCTGTAAG	1.04
ATAACTTACG	1.25
ATGTCGCCAT	0.987
GCTAATATAA	0.987
ACGGTGAGCG	0.989
AGTGATTTCC	1.03
ATCATGAATC	1.03
AGCCGACGGG	1.03
GCAGAGTAAA	1.01
TAGGCCATAC	2.33
GCCCCCGGAC	1.09
TTGTAACATG	0.994
GTATGGAAGG	0.994
TATAGTATTA	0.922
GAGAAAATTA	1.01
CGAGGGCTCG	0.997
CTGTCTATGG	1
TAGGACAAGG	0.953
ACCCCGAGC	1.16
TCCAGGGAAC	1.01
AAAATCTTGG	1.01
AGATGTGCAC	0.958
TGTTAGGACC	1.02

Sequence	switch fluorescence ratio
CTCTTACTGT	0.967
CATCTCAAGT	0.984
AGCAAGGCGA	1.17
CCATGCAGAG	1.1
CCTTAATCGT	1
CGATAGTACT	1.07
ATTTATCGTT	0.979
CTAGCTACGT	1
ATACAATGAG	1.01
TAAAAGCCTA	0.976
GCGTTCCGCT	1.03
ACCGTATGTA	1.18
TCGTGAGGGC	0.984
TCGTCGTC	0.971
CGCTCGGCTC	1.09
CGTTGAGGGA	1.02
ATCACCTACA	1.27
TCTGTGAGTT	0.996
AGACCAAAAT	1.05
GCTGCCCATT	0.978
GAGGGATACC	1.02
TGAATAAAAG	0.998
CGTCCTGACT	1.05

Sequence	switch fluorescence ratio
TCGCCGTACT	0.962
CCAGTACGGC	1.01
GCTTTTGTCG	1.02
TGATCGGAGG	1.05
GATGGTACCT	1.07
TATTGACCGC	1.1
AGGCGGAGGG	1.02
GAGCGTACCT	1.14
GCATTTAGGA	0.967
TGCAGCAGGG	0.994
TTCCATCCCT	1.09
GCCTTCGTTT	0.976
AAGTGTAGAT	1.06
GCATAGGAAA	1.05
AGTTAATTAC	1.1
AGAGACACGC	1.04
CTGCGCTCTC	2.28
TCGGTGGGA	0.954
TACGTAGATA	1.06
TTGCGCTGTT	0.985
ACCGGTAGCT	0.983
CTCAGAGAGA	0.984
AAGAGGAATC	0.978

Sequence	switch fluorescence ratio
CTATTCTGGG	0.991
CGTTGCGTCC	1.02
CGTTTCGGAT	1
CTGAACGGG	1.03
GTGATCGGGG	0.997
TTTCACCCTG	1.05
AAATTTCATC	1.05
CAGACTTG	0.964
TCCACGTCAG	0.98
TAATCAAAAG	0.999
TTTGTGTACT	0.992
GGAAGTATC	0.986
AGAAAACGAG	0.995
GCATTTAGCT	0.987
GTGTTTGGTA	0.982
CAGTGCGGAT	1.06
ATCTGGTCT	1.03
CTGGTTGGAC	1.04
CTATGGTGCG	1.03
TCGGAGAAAC	1
CAGAACGCCC	1.65
AAGAGTCAAA	0.962
TCGCCTTGAG	1.01

Sequence	switch fluorescence ratio
TCATCTGATG	0.972
GTAGTTCGAG	0.996
GATGAAGTGA	1
ATCCCCCACC	1.15
GACTAGAGCG	0.996
TCTAATGAGT	0.998
TGTGATTCTG	0.95
CAGACCTTAG	0.968
ATGGCCAGAG	0.945
GTCTCAAACC	1.09
GTAGGTTGGG	0.991
TGGTGTACC	1.02
TCATCGAGGC	1.03
GCCCCTCGAA	1.05
CCTTCGGATC	3.4
TTTGCAGCCT	1.02
TCCTTCACGC	2.08
GGACGAGGGA	0.965
AAGGCTAGCT	0.937
CCATGACATA	1.02
CTGCGGGAAC	1.19
GTGGCCTACA	0.999
GAGCGCTCTG	1.02

Sequence	switch fluorescence ratio
GGGTCCCTTT	0.988
TTTAGCCTTC	1.14
CCCGCCCGTT	1.01
GCCACTCATG	0.997
ATGGGGCTT	0.976
TAGGTACGGG	1.04
TGAGGAAAAT	1.01
TTATAGACCA	1.08
GTTGAAGCCG	0.928
TGGCAGTCGT	0.942
TGGAGGTTA	0.983
GAGGACGTCT	1.07
TGCTTATCAT	0.99
TGGGAGACTC	1.01
AGGAAAAGGC	1.01
CGTTCTTAC	1.13
TCGTGTGTG	0.993
GACTTGCCTA	1.01
ATGATGGAGG	1.02
